Measurements: the supplement of paper PMC8728848
The other results are listed elsewhere or left out.

Key:
Experiment in all cases: glycan array binding signal (z-score within array); higher = stronger binding
Settings in all cases: glycan notation: IUPAC condensed, linker removed
Fuc(a1-2)Gal = molecular target: Fuc(a1-2)Gal
Outline: (§1)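 The binding signal is a Z-score computed within each array and averaged over linkers. Arrays of the same protein sequence at different concentrations or buffers were also averaged together. Data originate from 3228 arrays in the Consortium for Functional Glycomics database, kept only where the protein sequence was available.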

Fuc(a1-2)Gal(b1-3)GalNAc = molecular target: Fuc(a1-2)Gal(b1-3)GalNAc
Outline: as §1

[1] = molecular target: Fuc(a1-2)Gal(b1-3)GalNAc(a1-3)[Fuc(a1-2)]Gal(b1-4)Glc
Outline: as §1

[2] = molecular target: Fuc(a1-2)Gal(b1-3)GalNAc(a1-3)[Fuc(a1-2)]Gal(b1-4)GlcNAc
Outline: as §1

[3] = molecular target: Fuc(a1-2)Gal(b1-3)GalNAc(b1-3)Gal
Outline: as §1

[4] = molecular target: Fuc(a1-2)Gal(b1-3)GalNAc(b1-3)Gal(a1-4)Gal(b1-4)Glc
Outline: as §1

[5] = molecular target: Fuc(a1-2)Gal(b1-3)GalNAc(b1-4)[Neu5Ac(a2-3)]Gal(b1-4)Glc
Outline: as §1

Fuc(a1-2)Gal(b1-3)GlcNAc = molecular target: Fuc(a1-2)Gal(b1-3)GlcNAc
Outline: as §1

[6] = molecular target: Fuc(a1-2)Gal(b1-3)GlcNAc(b1-2)Man(a1-3)[Fuc(a1-2)Gal(b1-3)GlcNAc(b1-2)Man(a1-6)]Man(b1-4)GlcNAc(b1-4)GlcNAc
Outline: as §1

[7] = molecular target: Fuc(a1-2)Gal(b1-3)GlcNAc(b1-2)Man(a1-3)[Fuc(a1-2)Gal(b1-3)GlcNAc(b1-2)Man(a1-6)]Man(b1-4)GlcNAc(b1-4)[Fuc(a1-6)]GlcNAc
Outline: as §1

[8] = molecular target: Fuc(a1-2)Gal(b1-3)GlcNAc(b1-3)Gal(b1-4)Glc
Outline: as §1

[9] = molecular target: Fuc(a1-2)Gal(b1-3)GlcNAc(b1-3)GalNAc
Outline: as §1

[10] = molecular target: Fuc(a1-2)Gal(b1-3)GlcNAc(b1-3)[Fuc(a1-2)Gal(b1-3)GlcNAc(b1-6)]GalNAc
Outline: as §1

[11] = molecular target: Fuc(a1-2)Gal(b1-3)GlcNAc(b1-3)[Gal(b1-4)GlcNAc(b1-6)]Gal(b1-4)Glc
Outline: as §1

[12] = molecular target: Fuc(a1-2)Gal(b1-3)GlcNAc(b1-3)[Neu5Ac(a2-6)Gal(b1-4)GlcNAc(b1-6)]Gal(b1-4)Glc
Outline: as §1

[13] = molecular target: Fuc(a1-2)Gal(b1-3)GlcNAc6S
Outline: as §1

[14] = molecular target: Fuc(a1-2)Gal(b1-3)[Fuc(a1-4)]GlcNAc
Outline: as §1

[15] = molecular target: Fuc(a1-2)Gal(b1-3)[Fuc(a1-4)]GlcNAc(b1-2)Man(a1-3)[Fuc(a1-2)Gal(b1-3)[Fuc(a1-4)]GlcNAc(b1-2)Man(a1-3)]Man(b1-4)GlcNAc(b1-4)GlcNAc
Outline: as §1

[16] = molecular target: Fuc(a1-2)Gal(b1-3)[Fuc(a1-4)]GlcNAc(b1-2)Man(a1-3)[Fuc(a1-2)Gal(b1-3)[Fuc(a1-4)]GlcNAc(b1-2)Man(a1-6)]Man(b1-4)GlcNAc(b1-4)[Fuc(a1-6)]GlcNAc(b1-4)[Fuc(a1-6)]GlcNAc
Outline: as §1

[17] = molecular target: Fuc(a1-2)Gal(b1-3)[Fuc(a1-4)]GlcNAc(b1-3)[Fuc(a1-3)[Gal(b1-4)]GlcNAc(b1-6)]Gal(b1-4)Glc
Outline: as §1

[18] = molecular target: Fuc(a1-2)Gal(b1-3)[Fuc(a1-4)]GlcNAc(b1-3)[Gal(b1-4)GlcNAc(b1-6)]Gal(b1-4)Glc
Outline: as §1

Fuc(a1-2)Gal(b1-4)Glc = molecular target: Fuc(a1-2)Gal(b1-4)Glc
Outline: as §1

Fuc(a1-2)Gal(b1-4)Glc6S = molecular target: Fuc(a1-2)Gal(b1-4)Glc6S
Outline: as §1

Fuc(a1-2)Gal(b1-4)GlcNAc = molecular target: Fuc(a1-2)Gal(b1-4)GlcNAc
Outline: as §1

[19] = molecular target: Fuc(a1-2)Gal(b1-4)GlcNAc(b1-2)Man
Outline: as §1

[20] = molecular target: Fuc(a1-2)Gal(b1-4)GlcNAc(b1-2)Man(a1-3)[Fuc(a1-2)Gal(b1-4)GlcNAc(b1-2)Man(a1-6)]Man(b1-4)GlcNAc(b1-4)GlcNAc
Outline: as §1

[21] = molecular target: Fuc(a1-2)Gal(b1-4)GlcNAc(b1-2)Man(a1-3)[Fuc(a1-2)Gal(b1-4)GlcNAc(b1-2)Man(a1-6)]Man(b1-4)GlcNAc(b1-4)[Fuc(a1-6)]GlcNAc
Outline: as §1

[22] = molecular target: Fuc(a1-2)Gal(b1-4)GlcNAc(b1-2)[Fuc(a1-2)Gal(b1-4)GlcNAc(b1-4)]Man(a1-3)[Fuc(a1-2)Gal(b1-4)GlcNAc(b1-2)Man(a1-6)]Man(b1-4)GlcNAc(b1-4)GlcNAc
Outline: as §1

[23] = molecular target: Fuc(a1-2)Gal(b1-4)GlcNAc(b1-3)Gal(b1-4)GlcNAc
Outline: as §1

[24] = molecular target: Fuc(a1-2)Gal(b1-4)GlcNAc(b1-3)Gal(b1-4)GlcNAc(b1-2)Man(a1-3)[Fuc(a1-2)Gal(b1-4)GlcNAc(b1-3)Gal(b1-4)GlcNAc(b1-2)Man(a1-6)]Man(b1-4)GlcNAc(b1-4)GlcNAc
Outline: as §1

[25] = molecular target: Fuc(a1-2)Gal(b1-4)GlcNAc(b1-3)Gal(b1-4)GlcNAc(b1-3)Gal(b1-4)GlcNAc
Outline: as §1

[26] = molecular target: Fuc(a1-2)Gal(b1-4)GlcNAc(b1-3)GalNAc
Outline: as §1

[27] = molecular target: Fuc(a1-2)Gal(b1-4)GlcNAc(b1-3)[Fuc(a1-2)Gal(b1-4)GlcNAc(b1-6)]GalNAc
Outline: as §1

[28] = molecular target: Fuc(a1-2)Gal(b1-4)GlcNAc(b1-3)[Fuc(a1-3)[Gal(b1-4)]GlcNAc(b1-6)]Gal(b1-4)Glc
Outline: as §1

[29] = molecular target: Fuc(a1-2)Gal(b1-4)GlcNAc(b1-6)GalNAc
Outline: as §1

[30] = molecular target: Fuc(a1-2)Gal(b1-4)GlcNAc6S
Outline: as §1

[31] = molecular target: Fuc(a1-2)Gal(b1-4)[Fuc(a1-3)]GlcNAc
Outline: as §1

B1: CPA (Cicer arietinum) (protein)
chain: MAFSYLNLVLVTLTTLFFLQTTKVKSQKSVSFHITNFTISRPSITLQGTAEFLPNVLLLNDIEHPVFVVGRALYSKPITLWNNKTGKVASFVTSFTFDVQDLKKTVPGHGLVFFLAPSGSEIPFSSDGGNLGVVDGKNAFNRFVGVEFDNFVNSWDPKYSHVGINVNSLISTKTVKWNRVSGELVKVSIVYDSVSTTLTVIVTYKNGQISILSQLVDLKAVLPDTVNIGFSASTTLVSPRQLHNIHSWSFTSTFET
glycan array binding signal (z-score) (Fuc(a1-2)Gal): -0.377
glycan array binding signal (z-score) (Fuc(a1-2)Gal(b1-3)GalNAc): -0.424
glycan array binding signal (z-score) [1]: -0.583
glycan array binding signal (z-score) [2]: -0.277
glycan array binding signal (z-score) [3]: -0.196
glycan array binding signal (z-score) [4]: -0.651
glycan array binding signal (z-score) [5]: -0.356
glycan array binding signal (z-score) (Fuc(a1-2)Gal(b1-3)GlcNAc): -0.561
glycan array binding signal (z-score) [6]: 3.79
glycan array binding signal (z-score) [7]: -0.045
glycan array binding signal (z-score) [8]: -0.59
glycan array binding signal (z-score) [9]: -0.558
glycan array binding signal (z-score) [10]: 1.04
glycan array binding signal (z-score) [11]: -0.239
glycan array binding signal (z-score) [12]: -0.283
glycan array binding signal (z-score) [13]: -0.242
glycan array binding signal (z-score) [14]: -0.329
glycan array binding signal (z-score) [15]: 0.392
glycan array binding signal (z-score) [16]: -0.262
glycan array binding signal (z-score) [17]: -0.54
glycan array binding signal (z-score) [18]: -0.072
glycan array binding signal (z-score) (Fuc(a1-2)Gal(b1-4)Glc): -0.421
glycan array binding signal (z-score) (Fuc(a1-2)Gal(b1-4)Glc6S): -0.116
glycan array binding signal (z-score) (Fuc(a1-2)Gal(b1-4)GlcNAc): -0.329
glycan array binding signal (z-score) [19]: -0.729
glycan array binding signal (z-score) [20]: 0.406
glycan array binding signal (z-score) [21]: 0.297
glycan array binding signal (z-score) [22]: 0.366
glycan array binding signal (z-score) [23]: -0.178
glycan array binding signal (z-score) [24]: 0.012
glycan array binding signal (z-score) [25]: -0.4
glycan array binding signal (z-score) [26]: -0.18
glycan array binding signal (z-score) [27]: -0.156
glycan array binding signal (z-score) [28]: -0.415
glycan array binding signal (z-score) [29]: 1.15
glycan array binding signal (z-score) [30]: -0.13
glycan array binding signal (z-score) [31]: -0.517
